Values joined by “and” are separate entries in the source; they are usually repeats but may differ in a detail not shown here. Equal values may be shown once. Inconclusive results, whose numbers are uncertain, are shown with a selection of clear calls. For some assays here: Potencies of inconclusive entries are doubtful fits and often do not repeat. Active and inactive are the calls of the source. Calls come from the whole dose curve; as a rule, active = well fitted activation curve with a large enough effect in the repeat runs; inconclusive = weak or mixed curves; inactive = flat fitted curve, though single readings scatter.
Assays:
Settings in all cases: CellTox Green fluorescence; series mostly up to 76.8 µM
[1] = A CellTox Green Cytotoxicity Assay to monitor cytotoxicity in HepG2 cells - 24 hour (AID 1224878); note: nearly all actives have a fitted effect of over 45% in size
Method in brief: (§1)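 Measurements at 0, 8, 16, 24, 32 and 40 h of treatment captured CellTox Green fluorescence in HepG2 cells that had been co-plated with reagent and preincubated 5 h at 37 C/5% CO2.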

[2] = A CellTox Green Cytotoxicity Assay to monitor cytotoxicity in HepG2 cells - 40 hour (AID 1224879); note: nearly all actives have a fitted effect of over 40% in size
Method in brief: as §1

[3] = A CellTox Green Cytotoxicity Assay to monitor cytotoxicity in HepG2 cells - 32 hour (AID 1224883); note: nearly all actives have a fitted effect of over 50% in size
Method in brief: as §1

[4] = A CellTox Green Cytotoxicity Assay to monitor cytotoxicity in HEK293 cells - 32 hour (AID 1224881); note: nearly all actives have a fitted effect of over 40% in size
Method in brief: (§2)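 Tox21 screen in HEK293: membrane-impermeant cyanine dye fluoresces on binding dead-cell DNA; compound pinned 5 h post-seeding, plates held at 37 C, signal read repeatedly through 40 h.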

[5] = A CellTox Green Cytotoxicity Assay to monitor cytotoxicity in HEK293 cells - 8 hour (AID 1224884); note: nearly all actives have a fitted effect of over 35% in size
Method in brief: as §2
Potency is the fitted concentration of half-maximal effect; tags give direction and shape of the fitted curve.

SMILES: O=S(=O)(Oc1ccc(Cl)cc1)c1ccc(Cl)cc1
- Potency [1]: inconclusive: 61.6 µM [activator, single point]
- Potency [2]: inconclusive: 61.6 µM [activator, single point]
- Potency [3]: inconclusive: 61.6 µM [activator, single point]

SMILES: O=C(O)C1C2CCC(O2)C1C(=O)O (centres undefined)
- Potency [2]: inconclusive: 27.9 µM [activator, partial curve] and inconclusive: 17.9 µM [activator, partial curve, poor fit]

SMILES: CC(C)(c1cc(Cl)c(O)c(Cl)c1)c1cc(Cl)c(O)c(Cl)c1
- Potency [1]: inconclusive: 21.9 µM [activator, partial curve, poor fit]
- Potency [2]: inconclusive: 21.9 µM [activator, partial curve, poor fit]
- Potency [3]: inconclusive: 21.9 µM [activator, partial curve, poor fit]

SMILES: C[C@H]1O[C@@H](O[C@H]2[C@@H](O)C[C@H](O[C@H]3[C@@H](O)C[C@H](O[C@H]4CC[C@@]5(C)[C@H](CC[C@@H]6[C@@H]5CC[C@]5(C)[C@@H](C7=CC(=O)OC7)CC[C@]65O)C4)O[C@@H]3C)O[C@@H]2C)C[C@H](O)[C@@H]1O
- Potency [1]: inactive

SMILES: CC(C)C1CCC(Cc2ccc(Cl)cc2)C1(O)Cn1cncn1 (centres undefined)
- Potency [1]: active: 43.2 µM
- Potency [4]: active: 34.3 µM
- Potency [3]: active: 43.2 µM
- Potency [5]: inconclusive: 61.1 µM [activator, single point]

SMILES: CCOP(=S)(OCC)Oc1cc(C)nc(C(C)C)n1
- Potency [1]: inconclusive: 54.9 µM [activator, single point]
- Potency [3]: inconclusive: 49 µM [activator, partial curve]
